Consider one molecule from article PMC12466843.

Chains of the proteins cited; added tags and fusions are not shown.
UniProt Q96P20: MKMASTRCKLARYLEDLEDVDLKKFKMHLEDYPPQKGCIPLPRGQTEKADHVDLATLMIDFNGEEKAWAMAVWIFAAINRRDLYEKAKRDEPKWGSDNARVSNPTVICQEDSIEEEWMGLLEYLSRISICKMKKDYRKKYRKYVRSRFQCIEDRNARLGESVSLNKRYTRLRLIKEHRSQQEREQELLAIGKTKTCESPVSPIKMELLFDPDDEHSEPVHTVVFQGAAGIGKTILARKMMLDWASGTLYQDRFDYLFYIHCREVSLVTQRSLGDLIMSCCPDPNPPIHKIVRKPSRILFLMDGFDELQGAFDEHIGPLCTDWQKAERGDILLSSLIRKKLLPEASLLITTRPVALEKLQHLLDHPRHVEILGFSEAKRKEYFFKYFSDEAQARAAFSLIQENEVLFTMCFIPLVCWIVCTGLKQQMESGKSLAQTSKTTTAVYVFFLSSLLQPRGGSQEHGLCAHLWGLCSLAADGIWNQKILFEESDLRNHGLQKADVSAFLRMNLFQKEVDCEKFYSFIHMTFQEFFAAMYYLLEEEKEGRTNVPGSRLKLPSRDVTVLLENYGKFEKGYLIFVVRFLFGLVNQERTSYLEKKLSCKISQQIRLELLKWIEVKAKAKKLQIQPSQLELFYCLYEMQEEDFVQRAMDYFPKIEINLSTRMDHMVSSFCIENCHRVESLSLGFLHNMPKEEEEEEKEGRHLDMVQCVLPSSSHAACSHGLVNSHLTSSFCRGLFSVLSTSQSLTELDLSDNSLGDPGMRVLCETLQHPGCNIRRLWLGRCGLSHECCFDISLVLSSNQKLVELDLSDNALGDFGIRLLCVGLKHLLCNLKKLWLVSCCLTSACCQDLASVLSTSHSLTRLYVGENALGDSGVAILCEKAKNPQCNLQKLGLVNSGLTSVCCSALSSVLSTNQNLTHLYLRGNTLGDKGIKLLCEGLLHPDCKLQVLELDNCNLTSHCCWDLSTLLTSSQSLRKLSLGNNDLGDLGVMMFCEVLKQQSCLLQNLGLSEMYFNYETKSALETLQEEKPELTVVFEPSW
UniProt P29466: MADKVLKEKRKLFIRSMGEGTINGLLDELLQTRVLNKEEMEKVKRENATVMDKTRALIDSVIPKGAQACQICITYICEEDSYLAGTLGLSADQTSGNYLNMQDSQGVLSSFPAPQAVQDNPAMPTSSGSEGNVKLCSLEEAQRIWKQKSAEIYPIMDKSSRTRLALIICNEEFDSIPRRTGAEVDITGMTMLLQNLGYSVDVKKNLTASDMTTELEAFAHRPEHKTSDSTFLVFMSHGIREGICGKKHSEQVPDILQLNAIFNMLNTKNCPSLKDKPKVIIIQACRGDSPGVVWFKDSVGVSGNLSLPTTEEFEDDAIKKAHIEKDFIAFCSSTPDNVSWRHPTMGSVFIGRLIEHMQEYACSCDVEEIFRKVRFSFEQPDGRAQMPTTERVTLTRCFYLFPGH
UniProt Q9ULZ3: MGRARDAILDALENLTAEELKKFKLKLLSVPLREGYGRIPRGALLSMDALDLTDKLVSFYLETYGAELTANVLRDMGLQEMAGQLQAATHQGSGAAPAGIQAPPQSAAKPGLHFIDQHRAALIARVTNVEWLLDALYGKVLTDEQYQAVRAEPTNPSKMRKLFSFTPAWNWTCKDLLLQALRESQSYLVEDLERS

Results are given in words; binding and its absence hold for the method and conditions named. Binding seen in cells or lysates may run through a third protein. Some results given as binding are weak or reduced against the parent protein; the word gives no strength. Where a sequence is shown, tags or fusion partners need not be part of it.

Assay in all cases: co-IP; HEK293T cells transfected with Myc- and Flag-tagged plasmids; lysates immunoprecipitated with anti-c-Myc beads at 4°C overnight; IP lysis buffer (150 mM NaCl, 100 mM tris-HCl pH 8.0, 0.5% Triton X-100, 2 mM EDTA); immunoblot (Fig. 1B, C, I, J)
On the technique in general: Immunoblotting shows a protein as a band on a membrane.

The target of assay [1] is Myc-tagged human NLRP3 (human) (UniProt Q96P20).
For assay [2], the target named is Myc-human pro–caspase-1 (human) (UniProt P29466).
In the next assay the target is Myc-human ASC (human) (UniProt Q9ULZ3).

B1: Flag-tagged human USP13 (enzyme, UniProt Q92995 1-863)
chain: MQRRGALFGMPGGSGGRKMAAGDIGELLVPHMPTIRVPRSGDRVYKNECAFSYDSPNSEGGLYVCMNTFLAFGREHVERHFRKTGQSVYMHLKRHVREKVRGASGGALPKRRNSKIFLDLDTDDDLNSDDYEYEDEAKLVIFPDHYEIALPNIEELPALVTIACDAVLSSKSPYRKQDPDTWENELPVSKYANNLTQLDNGVRIPPSGWKCARCDLRENLWLNLTDGSVLCGKWFFDSSGGNGHALEHYRDMGYPLAVKLGTITPDGADVYSFQEEEPVLDPHLAKHLAHFGIDMLHMHGTENGLQDNDIKLRVSEWEVIQESGTKLKPMYGPGYTGLKNLGNSCYLSSVMQAIFSIPEFQRAYVGNLPRIFDYSPLDPTQDFNTQMTKLGHGLLSGQYSKPPVKSELIEQVMKEEHKPQQNGISPRMFKAFVSKSHPEFSSNRQQDAQEFFLHLVNLVERNRIGSENPSDVFRFLVEERIQCCQTRKVRYTERVDYLMQLPVAMEAATNKDELIAYELTRREAEANRRPLPELVRAKIPFSACLQAFSEPENVDDFWSSALQAKSAGVKTSRFASFPEYLVVQIKKFTFGLDWVPKKFDVSIDMPDLLDINHLRARGLQPGEEELPDISPPIVIPDDSKDRLMNQLIDPSDIDESSVMQLAEMGFPLEACRKAVYFTGNMGAEVAFNWIIVHMEEPDFAEPLTMPGYGGAASAGASVFGASGLDNQPPEEIVAIITSMGFQRNQAIQALRATNNNLERALDWIFSHPEFEEDSDFVIEMENNANANIISEAKPEGPRVKDGSGTYELFAFISHMGTSTMSGHYICHIKKEGRWVIYNDHKVCASERPPKDLGYMYFYRRIPS
Take B1: the binding result in assay [1] was “binds”; in assay [2], “no binding”; with Myc-human ASC (human), “no binding”.
